Data taken from the supplement of paper PMC10037445.
In all, about 2,900 compounds were measured (“NF-kB SEAP reporter activity, fold change vs agonist alone”: median about 0.99, highest 2% from about 2.6 on). The list shows a part of the results.

What was measured:
[1] = tested on: RAW-Dual; test: NF-kB SEAP reporter activity, fold change vs agonist alone; higher = enhanced NF-kB activity
How it was run: (§1)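 Supernatant from RAW-Dual macrophages was read after 20 hours for IRF by QuantiLuc luminescence and for NF-κB by QuantiBlue absorbance at 620 nm. The cells (50,000 cells/well in DMEM, 384-well plates, 37 °C, 5% CO2) had received 50 nL of library stock by pin tool and, 1 h later, a PRR agonist. Reporter activity is expressed relative to agonist-alone wells as fold change, and wells were flagged cytotoxic if IncuCyte confluency was under 70% of agonist controls in both mask sets.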

[2] = tested on: RAW-Dual; test: NF-kB SEAP reporter activity, fold change vs agonist alone; cytotoxicity flag (confluency mask): cytotoxic (confluency <70% of control); higher = enhanced NF-kB activity
How it was run: as §1

[3] = tested on: RAW-Dual; test: NF-kB SEAP reporter activity, fold change vs agonist alone; cytotoxicity flag (confluency mask): not cytotoxic; higher = enhanced NF-kB activity
How it was run: as §1

[4] = library stock concentration (final ~1000-fold dilution): 10 mM, cytotoxicity flag (confluency mask): cytotoxic (confluency <70% of control), agonist: MPLA (TLR4) […]
[5] = agonist: ODN 1826 (TLR9) 0.5 ug/mL
[6] = agonist: Pam2CSK4 (TLR2/6) 0.1 ug/mL
[7] = agonist: Pam3CSK4 (TLR2/1) 0.1 ug/mL
[8] = library stock concentration (final ~1000-fold dilution): 10 mM, cytotoxicity flag (confluency mask): not cytotoxic, agonist: Imiquimod (TLR7) […]
[9] = library stock concentration (final ~1000-fold dilution): 10 mM, cytotoxicity flag (confluency mask): not cytotoxic, agonist: MPLA (TLR4) […]
[10] = library stock concentration (final ~1000-fold dilution): 10 mM, cytotoxicity flag (confluency mask): cytotoxic (confluency <70% of control), agonist: Imiquimod (TLR7) […]

CC(OCC1(c2ccccc2)CCC2(CCC(=O)N2)CN1)c1cc(C(F)(F)F)cc(C(F)(F)F)c1 (centres undefined)
NF-kB SEAP reporter activity [1, 4]: 0.603

CC(OCC1(c2ccccc2)CCC2(CCC(=O)N2)CN1)c1cc(C(F)(F)F)cc(C(F)(F)F)c1 (centres undefined) (library stock concentration (final ~1000-fold dilution): 10 mM)
NF-kB SEAP reporter activity ([2]; agonist: LPS (TLR4) 0.1 ug/mL): 0.429 | NF-kB SEAP reporter activity [2, 5]: 0.421 | NF-kB SEAP reporter activity [2, 6]: 0.283 | NF-kB SEAP reporter activity [2, 7]: 0.261

C=C1C(=O)O[C@H]2[C@H]1CC/C(C)=C\CC[C@@]1(C)O[C@@H]21 (library stock concentration (final ~1000-fold dilution): 10 mM)
NF-kB SEAP reporter activity ([3]; agonist: LPS (TLR4) 0.1 ug/mL): 0.692 | NF-kB SEAP reporter activity [3, 5]: 0.285 | NF-kB SEAP reporter activity [3, 6]: 0.243 | NF-kB SEAP reporter activity [3, 7]: 0.229

C=C1C(=O)O[C@H]2[C@H]1CC/C(C)=C\CC[C@@]1(C)O[C@@H]21
NF-kB SEAP reporter activity [1, 8]: 1.01 | NF-kB SEAP reporter activity [1, 9]: 0.372

CCc1nc(C(N)=O)c(Nc2ccc(N3CCC(N4CCN(C)CC4)CC3)c(OC)c2)nc1NC1CCOCC1 (library stock concentration (final ~1000-fold dilution): 10 mM)
NF-kB SEAP reporter activity ([3]; agonist: LPS (TLR4) 0.1 ug/mL): 0.855 | NF-kB SEAP reporter activity [3, 5]: 0.273 | NF-kB SEAP reporter activity [3, 6]: 0.384 | NF-kB SEAP reporter activity [3, 7]: 0.834

CCc1nc(C(N)=O)c(Nc2ccc(N3CCC(N4CCN(C)CC4)CC3)c(OC)c2)nc1NC1CCOCC1
NF-kB SEAP reporter activity [1, 8]: 0.887 | NF-kB SEAP reporter activity [1, 9]: 1.24

N=C(N)NCCN1CCCCCCC1.O=S(=O)(O)O
NF-kB SEAP reporter activity ([1]; library stock concentration (final ~1000-fold dilution): 10 mM water, cytotoxicity flag (confluency mask): not cytotoxic, agonist: MPLA (TLR4) […]): 1.05

N=C(N)NCCN1CCCCCCC1.O=S(=O)(O)O (library stock concentration (final ~1000-fold dilution): 10 mM water)
NF-kB SEAP reporter activity ([3]; agonist: LPS (TLR4) 0.1 ug/mL): 1.13 | NF-kB SEAP reporter activity [3, 5]: 1.05 | NF-kB SEAP reporter activity [3, 6]: 1.06 | NF-kB SEAP reporter activity [3, 7]: 0.972

COc1ccc(CC(=O)Nc2nc3c(s2)CCc2ccccc2-3)cc1OC (library stock concentration (final ~1000-fold dilution): 10 mM)
NF-kB SEAP reporter activity ([3]; agonist: LPS (TLR4) 0.1 ug/mL): 1.22 | NF-kB SEAP reporter activity [3, 5]: 1.02 | NF-kB SEAP reporter activity [3, 6]: 0.644 | NF-kB SEAP reporter activity [3, 7]: 1.05

COc1ccc(CC(=O)Nc2nc3c(s2)CCc2ccccc2-3)cc1OC
NF-kB SEAP reporter activity [1, 8]: 0.987 | NF-kB SEAP reporter activity [1, 9]: 1.12

CC1(C(=O)O)CCC2(C)CCC3(C)C(=CC(=O)C4C5(C)CCC(OC6OC(C(=O)O)C(O)C(O)C6OC6OC(C(=O)O)C(O)C(O)C6O)C(C)(C)C5CCC43C)C2C1.N.N (centres undefined) (library stock concentration (final ~1000-fold dilution): 10 mM)
NF-kB SEAP reporter activity ([3]; agonist: LPS (TLR4) 0.1 ug/mL): 0.96 | NF-kB SEAP reporter activity [3, 5]: 0.88 | NF-kB SEAP reporter activity [3, 6]: 0.866 | NF-kB SEAP reporter activity [3, 7]: 1.15

CC1(C(=O)O)CCC2(C)CCC3(C)C(=CC(=O)C4C5(C)CCC(OC6OC(C(=O)O)C(O)C(O)C6OC6OC(C(=O)O)C(O)C(O)C6O)C(C)(C)C5CCC43C)C2C1.N.N (centres undefined)
NF-kB SEAP reporter activity [1, 8]: 0.926 | NF-kB SEAP reporter activity [1, 9]: 1.03

CNS(=O)(=O)Nc1nccc(Cc2c(C)c3ccc(Oc4ncccn4)cc3oc2=O)c1F (library stock concentration (final ~1000-fold dilution): 10 mM)
NF-kB SEAP reporter activity ([3]; agonist: LPS (TLR4) 0.1 ug/mL): 0.195 | NF-kB SEAP reporter activity [3, 5]: 0.407 | NF-kB SEAP reporter activity [3, 6]: 0.0713 | NF-kB SEAP reporter activity [3, 7]: 0.134

CNS(=O)(=O)Nc1nccc(Cc2c(C)c3ccc(Oc4ncccn4)cc3oc2=O)c1F
NF-kB SEAP reporter activity [1, 8]: 0.168 | NF-kB SEAP reporter activity [1, 9]: 0.289

Cl.OC1CCC(Nc2ncc3nc(Nc4c(F)cc(F)cc4F)n(C4CCOC4)c3n2)CC1 (centres undefined) (library stock concentration (final ~1000-fold dilution): 10 mM)
NF-kB SEAP reporter activity ([3]; agonist: LPS (TLR4) 0.1 ug/mL): 0.387 | NF-kB SEAP reporter activity [3, 5]: 0.417 | NF-kB SEAP reporter activity [3, 6]: 0.129 | NF-kB SEAP reporter activity [3, 7]: 0.218

Cl.OC1CCC(Nc2ncc3nc(Nc4c(F)cc(F)cc4F)n(C4CCOC4)c3n2)CC1 (centres undefined)
NF-kB SEAP reporter activity [1, 8]: 0.575 | NF-kB SEAP reporter activity [1, 9]: 0.452

CC(C)(C)OC(=O)NC1CCCCC/C=C\C2CC2(C(=O)NS(=O)(=O)C2CC2)NC(=O)C2CC(OC(=O)N3Cc4cccc(F)c4C3)CN2C1=O (centres undefined)
NF-kB SEAP reporter activity [1, 8]: 0.902 | NF-kB SEAP reporter activity [1, 9]: 1.01

CC(C)(C)OC(=O)NC1CCCCC/C=C\C2CC2(C(=O)NS(=O)(=O)C2CC2)NC(=O)C2CC(OC(=O)N3Cc4cccc(F)c4C3)CN2C1=O (centres undefined) (library stock concentration (final ~1000-fold dilution): 10 mM)
NF-kB SEAP reporter activity ([3]; agonist: LPS (TLR4) 0.1 ug/mL): 1.01 | NF-kB SEAP reporter activity [3, 5]: 0.995 | NF-kB SEAP reporter activity [3, 6]: 0.808 | NF-kB SEAP reporter activity [3, 7]: 1.03

CNc1nc(-c2ccc3c(N)n[nH]c3c2)cc(N2CC(C(=O)NC3CCCCC3)CCC2C)n1 (centres undefined)
NF-kB SEAP reporter activity [1, 8]: 0.991 | NF-kB SEAP reporter activity [1, 9]: 1.06

CNc1nc(-c2ccc3c(N)n[nH]c3c2)cc(N2CC(C(=O)NC3CCCCC3)CCC2C)n1 (centres undefined) (library stock concentration (final ~1000-fold dilution): 10 mM)
NF-kB SEAP reporter activity ([3]; agonist: LPS (TLR4) 0.1 ug/mL): 1.27 | NF-kB SEAP reporter activity [3, 5]: 0.182 | NF-kB SEAP reporter activity [3, 6]: 0.58 | NF-kB SEAP reporter activity [3, 7]: 0.488

CC1CNC(=O)c2cnn3ccc(nc23)NC(C)c2cc(F)ccc2O1 (centres undefined) (library stock concentration (final ~1000-fold dilution): 10 mM)
NF-kB SEAP reporter activity ([3]; agonist: LPS (TLR4) 0.1 ug/mL): 1.58 | NF-kB SEAP reporter activity [3, 5]: 0.9 | NF-kB SEAP reporter activity [3, 6]: 0.5 | NF-kB SEAP reporter activity [3, 7]: 0.422

CC1CNC(=O)c2cnn3ccc(nc23)NC(C)c2cc(F)ccc2O1 (centres undefined)
NF-kB SEAP reporter activity [1, 8]: 0.753 | NF-kB SEAP reporter activity [1, 9]: 0.916

Nc1nccc(Oc2ccc3c(C(=O)Nc4cccc(C(F)(F)F)c4)cccc3c2)n1 (library stock concentration (final ~1000-fold dilution): 10 mM)
NF-kB SEAP reporter activity ([3]; agonist: LPS (TLR4) 0.1 ug/mL): 0.325 | NF-kB SEAP reporter activity [3, 5]: 0.326 | NF-kB SEAP reporter activity [3, 6]: 0.132 | NF-kB SEAP reporter activity [3, 7]: 0.178

Nc1nccc(Oc2ccc3c(C(=O)Nc4cccc(C(F)(F)F)c4)cccc3c2)n1
NF-kB SEAP reporter activity [1, 8]: 0.327 | NF-kB SEAP reporter activity [1, 9]: 0.375

CN1CCN(c2cccc(Nc3nc4c(-c5ccc(S(C)(=O)=O)cc5)cccn4n3)c2)CC1 (library stock concentration (final ~1000-fold dilution): 10 mM)
NF-kB SEAP reporter activity ([3]; agonist: LPS (TLR4) 0.1 ug/mL): 0.349 | NF-kB SEAP reporter activity [3, 5]: 0.193 | NF-kB SEAP reporter activity [3, 6]: 0.152 | NF-kB SEAP reporter activity [3, 7]: 0.234

CN1CCN(c2cccc(Nc3nc4c(-c5ccc(S(C)(=O)=O)cc5)cccn4n3)c2)CC1
NF-kB SEAP reporter activity [1, 8]: 0.514 | NF-kB SEAP reporter activity [1, 9]: 0.729

O=C(/C=C/c1ccc2ccc(C(F)(F)F)cc2n1)c1ccncc1
NF-kB SEAP reporter activity [1, 10]: 0.59 | NF-kB SEAP reporter activity [1, 4]: 0.757

O=C(/C=C/c1ccc2ccc(C(F)(F)F)cc2n1)c1ccncc1 (library stock concentration (final ~1000-fold dilution): 10 mM)
NF-kB SEAP reporter activity ([2]; agonist: LPS (TLR4) 0.1 ug/mL): 0.521 | NF-kB SEAP reporter activity [2, 5]: 0.532 | NF-kB SEAP reporter activity [2, 6]: 0.35 | NF-kB SEAP reporter activity [2, 7]: 0.304

Oc1ccc(O)cc1
NF-kB SEAP reporter activity [1, 8]: 2.01 | NF-kB SEAP reporter activity [1, 9]: 0.442

Oc1ccc(O)cc1 (library stock concentration (final ~1000-fold dilution): 10 mM)
NF-kB SEAP reporter activity ([3]; agonist: LPS (TLR4) 0.1 ug/mL): 0.383 | NF-kB SEAP reporter activity [3, 5]: 0.983 | NF-kB SEAP reporter activity [3, 6]: 0.936 | NF-kB SEAP reporter activity [3, 7]: 0.297

CNC(=O)c1nn(C)c2c1C(C)(C)Cc1cnc(Nc3ccc(N4CCN(C)CC4)cc3)nc1-2 (library stock concentration (final ~1000-fold dilution): 10 mM)
NF-kB SEAP reporter activity ([2]; agonist: LPS (TLR4) 0.1 ug/mL): 0.229 | NF-kB SEAP reporter activity [2, 5]: 1.12 | NF-kB SEAP reporter activity [2, 6]: 0.0958 | NF-kB SEAP reporter activity [2, 7]: 0.185

CNC(=O)c1nn(C)c2c1C(C)(C)Cc1cnc(Nc3ccc(N4CCN(C)CC4)cc3)nc1-2
NF-kB SEAP reporter activity [1, 10]: 2.16 | NF-kB SEAP reporter activity [1, 4]: 0.678
